Reference: article PMC4336329 (PLoS ONE, 2015)
Among all 310,000 compounds or so, about 14,000 (4.5%) showed an effect of 50% or more. Effects have a minus sign here. The list shows a part of the results.
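Also: peak tail current of the secondary pulse compared with the same well before compound.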

These molecules were tested against human ether-à-go-go-related gene (hERG) potassium channel (human, UniProt Q12809) (assay: primary screen, population patch clamp on CHO cells stably expressing hERG).
Chain of human ether-à-go-go-related gene (hERG) potassium channel (Q12809 whole entry, looked up): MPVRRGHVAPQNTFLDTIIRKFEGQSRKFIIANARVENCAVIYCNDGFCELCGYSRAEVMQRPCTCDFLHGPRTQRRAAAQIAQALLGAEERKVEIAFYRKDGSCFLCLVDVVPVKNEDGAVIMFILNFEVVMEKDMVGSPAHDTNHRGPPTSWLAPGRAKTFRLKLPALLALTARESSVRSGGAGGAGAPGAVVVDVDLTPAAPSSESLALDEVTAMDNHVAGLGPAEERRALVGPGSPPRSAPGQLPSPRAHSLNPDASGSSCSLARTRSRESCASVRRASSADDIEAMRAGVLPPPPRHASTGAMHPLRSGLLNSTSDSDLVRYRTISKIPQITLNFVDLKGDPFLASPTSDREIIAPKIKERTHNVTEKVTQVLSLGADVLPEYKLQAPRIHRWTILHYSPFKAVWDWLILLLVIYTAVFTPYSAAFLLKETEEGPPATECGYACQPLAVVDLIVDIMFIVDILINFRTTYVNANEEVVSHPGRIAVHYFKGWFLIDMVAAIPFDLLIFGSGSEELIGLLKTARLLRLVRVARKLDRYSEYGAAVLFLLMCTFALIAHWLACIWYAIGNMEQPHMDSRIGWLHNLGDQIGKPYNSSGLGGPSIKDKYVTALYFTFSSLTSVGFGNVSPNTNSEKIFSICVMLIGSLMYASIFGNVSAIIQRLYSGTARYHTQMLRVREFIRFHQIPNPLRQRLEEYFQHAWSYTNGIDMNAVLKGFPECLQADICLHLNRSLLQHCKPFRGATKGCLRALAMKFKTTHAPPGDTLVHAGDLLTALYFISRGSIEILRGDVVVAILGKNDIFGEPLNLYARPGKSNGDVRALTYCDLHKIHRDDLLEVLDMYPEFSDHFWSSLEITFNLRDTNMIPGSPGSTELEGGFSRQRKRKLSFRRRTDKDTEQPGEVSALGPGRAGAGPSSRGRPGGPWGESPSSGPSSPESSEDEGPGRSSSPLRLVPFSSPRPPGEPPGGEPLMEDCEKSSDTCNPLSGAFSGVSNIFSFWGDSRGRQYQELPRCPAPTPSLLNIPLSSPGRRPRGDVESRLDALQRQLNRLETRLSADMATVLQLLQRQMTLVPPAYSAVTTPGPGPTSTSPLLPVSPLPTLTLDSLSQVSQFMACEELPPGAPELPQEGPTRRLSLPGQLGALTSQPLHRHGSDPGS
For Cc1ccc(/C=C/c2nnc(-c3ccc(C)cc3)o2)cc1, the “hERG current change (%, negative = inhibition) at 10uM” value was 11.3%. For COc1ccc(-c2cc(C(=O)OCC(=O)NC(C)C)c3ccccc3n2)cc1, the “hERG current change (%, negative = inhibition) at 10uM” value was 9.82%. In the case of CCn1c2ccccc2c2cc(N=C3SC(CC(=O)Nc4ccccc4OC)C(=O)N3CCOC)ccc21 (stereo not drawn), the “hERG current change (%, negative = inhibition) at 10uM” value is reported as -3.75%. In the case of COc1cccc(Nc2nnc(SCC(=O)N3CC(C)OC(C)C3)s2)c1 (stereo not drawn), the “hERG current change (%, negative = inhibition) at 10uM” value is reported as -2.95%. With C=CCn1c(/N=C/c2ccc(OC)cc2)nc2ccccc21 the “hERG current change (%, negative = inhibition) at 10uM” value was 1.65%. In the case of O=C(c1cc(-c2ccco2)nc2ccccc12)N1CCN(c2ccc(F)cc2)CC1, the “hERG current change (%, negative = inhibition) at 10uM” value is reported as -28.8%. In the case of O=C(O)C(=O)O.O=[N+]([O-])c1ccccc1CNCCc1ccc(F)cc1, the “hERG current change (%, negative = inhibition) at 10uM” value is reported as -50%. For Cc1ccc2oc(=O)c3cnn(CC(=O)N(CCCN4CCOCC4)Cc4ccco4)c3c2c1, the “hERG current change (%, negative = inhibition) at 10uM” value was -57.5%. For CSc1cc(C)nc(N(C)C(C)=O)n1, the “hERG current change (%, negative = inhibition) at 10uM” value was 27.1%. With CN(C(N)=S)c1ccccc1 the “hERG current change (%, negative = inhibition) at 10uM” value was 10.2%. For CCOC(=O)N1CCC(NC(=O)CSCc2nc(-c3ccc(C)cc3)oc2C)CC1, the “hERG current change (%, negative = inhibition) at 10uM” value was -4.45%. O=c1ccnc(SCCC(F)=C(F)F)[nH]1 was tested, and the “hERG current change (%, negative = inhibition) at 10uM” value was 11.9%. COc1ccc(-c2cc(=O)oc3c(C)c(OC(C)C(C)=O)ccc23)cc1 (stereo not drawn) was tested, and the “hERG current change (%, negative = inhibition) at 10uM” value was -8.33%. With CSc1ncccc1C(=O)OCC(=O)NCc1ccc2c(c1)OCO2 the “hERG current change (%, negative = inhibition) at 10uM” value was -1.09%. For Cc1cc(C)nc(-n2nc(C)c3c(C(F)(F)F)cc(=O)[nH]c32)n1, the “hERG current change (%, negative = inhibition) at 10uM” value was 5.73%. With COc1nc(Cl)cn(-c2ccc(Cl)cc2)c1=O the “hERG current change (%, negative = inhibition) at 10uM” value was 27.3%. With COc1cc(OC)cc(C(=O)NC(=S)Nc2ccc(N3CCCC3)cc2)c1 the “hERG current change (%, negative = inhibition) at 10uM” value was -0.761%. With COc1ccc2c(=O)c3c(=O)n(-c4ccccc4)c(-c4ccco4)nc3oc2c1 the “hERG current change (%, negative = inhibition) at 10uM” value was 7.96%. With COc1ccc(CC(=O)OCC(=O)Nc2ccc(Cl)cn2)cc1 the “hERG current change (%, negative = inhibition) at 10uM” value was -8.45%. With COC(=O)c1ccccc1NC1c2ccccc2C(=O)N1c1cccnc1 (stereo not drawn) the “hERG current change (%, negative = inhibition) at 10uM” value was -7.2%. In the case of CCOC(=O)c1ccc(NC(=O)c2c(N)n(C)c(=O)[nH]c2=O)cc1, the “hERG current change (%, negative = inhibition) at 10uM” value is reported as 8.69%. In the case of COc1cc(C)c(NC(=O)C(=S)NCCc2ccccc2)cc1C, the “hERG current change (%, negative = inhibition) at 10uM” value is reported as 4.8%. In the case of CSCC[C@H](N)C(=O)N1CCC(C(=O)N[C@H](C)C(=O)NC(C)c2ccccc2)CC1 (stereo partly drawn), the “hERG current change (%, negative = inhibition) at 10uM” value is reported as 6.17%. CC1(C)CC(N2CCN(C(c3ccccc3)c3ccccc3)CC2)=CC(=[N+]2CCCCC2)C1.[I-] was tested, and the “hERG current change (%, negative = inhibition) at 10uM” value was -72.1%.
